Measured values: the supplement of paper PMC8728848
The other results are listed elsewhere or left out.

How the values were obtained:
Experiment in all cases: glycan array binding signal (z-score within array); higher = stronger binding
Conditions in all cases: glycan notation: IUPAC condensed, linker removed
[1] = target: GlcNAc(b1-3)Gal(b1-4)Glc
Procedure, shortened: (§1)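 From the Consortium for Functional Glycomics database, 3228 arrays were curated, keeping only those whose protein sequence was available. Binding is given as a within-array Z-score averaged across arrays sharing a protein sequence and across linkers. Negative Z-scores can be read as non-binding.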

[2] = target: GlcNAc(b1-3)Gal(b1-4)GlcNAc
Procedure, shortened: as §1

[3] = target: GlcNAc(b1-3)Gal(b1-4)GlcNAc(b1-2)Man(a1-3)[GlcNAc(b1-3)Gal(b1-4)GlcNAc(b1-2)Man(a1-6)]Man(b1-4)GlcNAc(b1-4)GlcNAc
Procedure, shortened: as §1

[4] = target: GlcNAc(b1-3)Gal(b1-4)GlcNAc(b1-2)Man(a1-3)[GlcNAc(b1-3)Gal(b1-4)GlcNAc(b1-2)Man(a1-6)]Man(b1-4)GlcNAc(b1-4)[Fuc(a1-6)]GlcNAc
Procedure, shortened: as §1

[5] = target: GlcNAc(b1-3)Gal(b1-4)GlcNAc(b1-2)[GlcNAc(b1-3)Gal(b1-4)GlcNAc(b1-6)]Man(a1-6)[GlcNAc(b1-3)Gal(b1-4)GlcNAc(b1-2)Man(a1-3)]Man(b1-4)GlcNAc(b1-4)GlcNAc
Procedure, shortened: as §1

[6] = target: GlcNAc(b1-3)Gal(b1-4)GlcNAc(b1-3)Gal(b1-4)GlcNAc
Procedure, shortened: as §1

[7] = target: GlcNAc(b1-3)Gal(b1-4)GlcNAc(b1-3)Gal(b1-4)GlcNAc(b1-2)Man(a1-3)[GlcNAc(b1-3)Gal(b1-4)GlcNAc(b1-3)Gal(b1-4)GlcNAc(b1-2)Man(a1-6)]Man(b1-4)GlcNAc(b1-4)GlcNAc
Procedure, shortened: as §1

[8] = target: GlcNAc(b1-3)Gal(b1-4)GlcNAc(b1-3)Gal(b1-4)GlcNAc(b1-2)Man(a1-3)[GlcNAc(b1-3)Gal(b1-4)GlcNAc(b1-3)Gal(b1-4)GlcNAc(b1-2)Man(a1-6)]Man(b1-4)GlcNAc(b1-4)[Fuc(a1-6)]GlcNAc
Procedure, shortened: as §1

[9] = target: GlcNAc(b1-3)Gal(b1-4)GlcNAc(b1-3)Gal(b1-4)GlcNAc(b1-2)[GlcNAc(b1-3)Gal(b1-4)GlcNAc(b1-3)Gal(b1-4)GlcNAc(b1-6)]Man(a1-6)[GlcNAc(b1-3)Gal(b1-4)GlcNAc(b1-3)Gal(b1-4)GlcNAc(b1-2)Man(a1-3)]Man(b1-4)GlcNAc(b1-4)[Fuc(a1-6)]GlcNAc
Procedure, shortened: as §1

[10] = target: GlcNAc(b1-3)Gal(b1-4)GlcNAc(b1-3)Gal(b1-4)GlcNAc(b1-3)Gal(b1-4)GlcNAc(b1-2)Man(a1-3)[GlcNAc(b1-3)Gal(b1-4)GlcNAc(b1-3)Gal(b1-4)GlcNAc(b1-3)Gal(b1-4)GlcNAc(b1-2)Man(a1-6)]Man(b1-4)GlcNAc(b1-4)GlcNAc
Procedure, shortened: as §1

[11] = target: GlcNAc(b1-3)Gal(b1-4)GlcNAc(b1-3)Gal(b1-4)GlcNAc(b1-3)Gal(b1-4)GlcNAc(b1-2)Man(a1-3)[GlcNAc(b1-3)Gal(b1-4)GlcNAc(b1-3)Gal(b1-4)GlcNAc(b1-3)Gal(b1-4)GlcNAc(b1-2)Man(a1-6)]Man(b1-4)GlcNAc(b1-4)[Fuc(a1-6)]GlcNAc
Procedure, shortened: as §1

[12] = target: GlcNAc(b1-3)Gal(b1-4)GlcNAc(b1-3)Gal(b1-4)GlcNAc(b1-3)Gal(b1-4)GlcNAc(b1-2)[GlcNAc(b1-3)Gal(b1-4)GlcNAc(b1-3)Gal(b1-4)GlcNAc(b1-3)Gal(b1-4)GlcNAc(b1-6)]Man(a1-6)[GlcNAc(b1-3)Gal(b1-4)GlcNAc(b1-3)Gal(b1-4)GlcNAc(b1-3)Gal(b1-4)GlcNAc(b1-2)Man(a1-3)]Man(b1-4)GlcNAc(b1-4)[Fuc(a1-6)]GlcNAc
Procedure, shortened: as §1

[13] = target: GlcNAc(b1-3)Gal(b1-4)GlcNAc(b1-3)Gal(b1-4)GlcNAc(b1-3)Gal(b1-4)GlcNAc(b1-3)Gal(b1-4)GlcNAc(b1-2)Man(a1-3)[GlcNAc(b1-3)Gal(b1-4)GlcNAc(b1-3)Gal(b1-4)GlcNAc(b1-3)Gal(b1-4)GlcNAc(b1-3)Gal(b1-4)GlcNAc(b1-2)Man(a1-6)]Man(b1-4)GlcNAc(b1-4)GlcNAc
Procedure, shortened: as §1

[14] = target: GlcNAc(b1-3)Gal(b1-4)GlcNAc(b1-3)Gal(b1-4)GlcNAc(b1-3)Gal(b1-4)GlcNAc(b1-3)Gal(b1-4)GlcNAc(b1-2)Man(a1-3)[GlcNAc(b1-3)Gal(b1-4)GlcNAc(b1-3)Gal(b1-4)GlcNAc(b1-3)Gal(b1-4)GlcNAc(b1-3)Gal(b1-4)GlcNAc(b1-2)Man(a1-6)]Man(b1-4)GlcNAc(b1-4)[Fuc(a1-6)]GlcNAc
Procedure, shortened: as §1

[15] = target: GlcNAc(b1-3)Gal(b1-4)GlcNAc(b1-3)Gal(b1-4)GlcNAc(b1-3)Gal(b1-4)GlcNAc(b1-3)Gal(b1-4)GlcNAc(b1-2)[GlcNAc(b1-3)Gal(b1-4)GlcNAc(b1-3)Gal(b1-4)GlcNAc(b1-3)Gal(b1-4)GlcNAc(b1-3)Gal(b1-4)GlcNAc(b1-6)]Man(a1-6)[GlcNAc(b1-3)Gal(b1-4)GlcNAc(b1-3)Gal(b1-4)GlcNAc(b1-3)Gal(b1-4)GlcNAc(b1-3)Gal(b1-4)GlcNAc(b1-2)Man(a1-3)]Man(b1-4)GlcNAc(b1-4)[Fuc(a1-6)]GlcNAc
Procedure, shortened: as §1

[16] = target: GlcNAc(b1-3)Gal(b1-4)GlcNAc(b1-3)Gal(b1-4)GlcNAc(b1-3)GalNAc
Procedure, shortened: as §1

[17] = target: GlcNAc(b1-3)Gal(b1-4)GlcNAc(b1-3)GalNAc
Procedure, shortened: as §1

[18] = target: GlcNAc(b1-3)Gal(b1-4)GlcNAc(b1-3)[GlcNAc(b1-3)Gal(b1-4)GlcNAc(b1-3)]GalNAc
Procedure, shortened: as §1

[19] = target: GlcNAc(b1-3)Gal(b1-4)GlcNAc(b1-6)[Gal(b1-3)]GalNAc
Procedure, shortened: as §1

[20] = target: GlcNAc(b1-3)Gal(b1-4)GlcNAc(b1-6)[GlcNAc(b1-3)Gal(b1-3)]GalNAc
Procedure, shortened: as §1

[21] = target: GlcNAc(b1-3)Gal(b1-4)GlcNAc(b1-6)[GlcNAc(b1-3)]Gal(b1-4)GlcNAc
Procedure, shortened: as §1

[22] = target: GlcNAc(b1-3)GalNAc
Procedure, shortened: as §1

[23] = target: GlcNAc(b1-3)Man
Procedure, shortened: as §1

[24] = target: GlcNAc(b1-3)[GlcNAc(b1-4)][GlcNAc(b1-6)]GlcNAc
Procedure, shortened: as §1

[25] = target: GlcNAc(b1-3)[GlcNAc(b1-6)]Gal(b1-4)GlcNAc
Procedure, shortened: as §1

[26] = target: GlcNAc(b1-3)[GlcNAc(b1-6)]GalNAc
Procedure, shortened: as §1

[27] = target: GlcNAc(b1-4)Gal(b1-4)GlcNAc
Procedure, shortened: as §1

[28] = target: GlcNAc(b1-4)GlcNAc
Procedure, shortened: as §1

[29] = target: GlcNAc(b1-4)GlcNAc(b1-4)GlcNAc
Procedure, shortened: as §1

[30] = target: GlcNAc(b1-4)GlcNAc(b1-4)GlcNAc(b1-4)GlcNAc(b1-4)GlcNAc
Procedure, shortened: as §1

[31] = target: GlcNAc(b1-4)GlcNAc(b1-4)GlcNAc(b1-4)GlcNAc(b1-4)GlcNAc(b1-4)GlcNAc
Procedure, shortened: as §1

[32] = target: GlcNAc(b1-4)[GlcNAc(b1-6)]GalNAc
Procedure, shortened: as §1

[33] = target: GlcNAc(b1-6)Gal(b1-4)GlcNAc
Procedure, shortened: as §1

[34] = target: GlcNAc(b1-6)GalNAc
Procedure, shortened: as §1

[35] = target: GlcNAc6S(b1-3)Gal(b1-4)GlcNAc
Procedure, shortened: as §1

[36] = target: Kdn(a2-3)Gal(b1-3)GalNAc
Procedure, shortened: as §1

[37] = target: Kdn(a2-3)Gal(b1-3)GlcNAc
Procedure, shortened: as §1

[38] = target: Kdn(a2-3)Gal(b1-4)Glc
Procedure, shortened: as §1

[39] = target: Kdn(a2-3)Gal(b1-4)GlcNAc
Procedure, shortened: as §1

[40] = target: Kdn(a2-3)Gal(b1-4)[Fuc(a1-3)]GlcNAc
Procedure, shortened: as §1

[41] = target: Kdn(a2-6)Gal(b1-4)GlcNAc
Procedure, shortened: as §1

[42] = target: Man(a1-2)Man(a1-2)Man(a1-3)Man
Procedure, shortened: as §1

[43] = target: Man(a1-2)Man(a1-2)Man(a1-6)[Man(a1-3)]Man
Procedure, shortened: as §1

[44] = target: Man(a1-2)Man(a1-3)Man
Procedure, shortened: as §1

[45] = target: Man(a1-2)Man(a1-3)[Man(a1-2)Man(a1-6)]Man
Procedure, shortened: as §1

B1: FimA-N3 (Actinomyces oris) (protein)
chain: MHHHHHHSSGVDLGTENLYFQSNAGLQGAQFQLYKAKNAYANTCSNEKEGAPIAINGQTTLTTDAQGAIDIKGLFISDSIDGADRDNQVNAMERCYVLVETKAPAGYVLPAGNGAATPVKVKAGEETTDN
glycan array binding signal (z-score) [1]: -0.359 | glycan array binding signal (z-score) [2]: -0.339 | glycan array binding signal (z-score) [3]: -0.324 | glycan array binding signal (z-score) [4]: 0.925 | glycan array binding signal (z-score) [5]: -0.443 | glycan array binding signal (z-score) [6]: -0.366 | glycan array binding signal (z-score) [7]: 0.239 | glycan array binding signal (z-score) [8]: 0.721 | glycan array binding signal (z-score) [9]: 0.202 | glycan array binding signal (z-score) [10]: -0.568 | glycan array binding signal (z-score) [11]: -0.073 | glycan array binding signal (z-score) [12]: 0.165 | glycan array binding signal (z-score) [13]: -0.047 | glycan array binding signal (z-score) [14]: -0.204 | glycan array binding signal (z-score) [15]: -0.433 | glycan array binding signal (z-score) [16]: 0.003 | glycan array binding signal (z-score) [17]: 0.471 | glycan array binding signal (z-score) [18]: -0.624 | glycan array binding signal (z-score) [19]: -0.482 | glycan array binding signal (z-score) [20]: -0.122 | glycan array binding signal (z-score) [21]: -0.297 | glycan array binding signal (z-score) [22]: -0.027 | glycan array binding signal (z-score) [23]: -0.375 | glycan array binding signal (z-score) [24]: 0.112 | glycan array binding signal (z-score) [25]: -0.08 | glycan array binding signal (z-score) [26]: 0.396 | glycan array binding signal (z-score) [27]: -0.488 | glycan array binding signal (z-score) [28]: -0.048 | glycan array binding signal (z-score) [29]: -0.549 | glycan array binding signal (z-score) [30]: 0.098 | glycan array binding signal (z-score) [31]: 0.029 | glycan array binding signal (z-score) [32]: 0.481 | glycan array binding signal (z-score) [33]: -0.136 | glycan array binding signal (z-score) [34]: 1.02 | glycan array binding signal (z-score) [35]: -0.481 | glycan array binding signal (z-score) [36]: -0.514 | glycan array binding signal (z-score) [37]: -0.302 | glycan array binding signal (z-score) [38]: -0.291 | glycan array binding signal (z-score) [39]: -0.14 | glycan array binding signal (z-score) [40]: -0.499 | glycan array binding signal (z-score) [41]: -0.558 | glycan array binding signal (z-score) [42]: -0.398 | glycan array binding signal (z-score) [43]: -0.489 | glycan array binding signal (z-score) [44]: -0.379 | glycan array binding signal (z-score) [45]: -0.586
